These results are taken from PubChem BioAssay AID488969 (Vanderbilt High Throughput Screening Facility, 2010).

In all, about 110,000 compounds were measured (“z-score”: median about -0.1, highest 2% from about 2 on). The list shows a part of the results. Active and inactive are the calls of the source.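 Rule for the calls: active = z-score in the third read window above 3 or below -3; inactive = the rest.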

This assay has as its target Metabotropic glutamate receptor 8 (Rattus norvegicus) (UniProt P70579). As to the kind of experiment: rat mGluR8 modulators via GIRK flux, primary screen, cell-based, thallium flux, HTS (AID 488969). To be noted: HEK293 rat mGluR8, GIRK (G protein-gated inwardly rectifying potassium channel) thallium flux, FluoZin2; at 10 µM; stronger effect = higher value; submaximal glutamate (EC20) added with thallium.
UniProt P70579, sequence (P70579 whole entry, looked up): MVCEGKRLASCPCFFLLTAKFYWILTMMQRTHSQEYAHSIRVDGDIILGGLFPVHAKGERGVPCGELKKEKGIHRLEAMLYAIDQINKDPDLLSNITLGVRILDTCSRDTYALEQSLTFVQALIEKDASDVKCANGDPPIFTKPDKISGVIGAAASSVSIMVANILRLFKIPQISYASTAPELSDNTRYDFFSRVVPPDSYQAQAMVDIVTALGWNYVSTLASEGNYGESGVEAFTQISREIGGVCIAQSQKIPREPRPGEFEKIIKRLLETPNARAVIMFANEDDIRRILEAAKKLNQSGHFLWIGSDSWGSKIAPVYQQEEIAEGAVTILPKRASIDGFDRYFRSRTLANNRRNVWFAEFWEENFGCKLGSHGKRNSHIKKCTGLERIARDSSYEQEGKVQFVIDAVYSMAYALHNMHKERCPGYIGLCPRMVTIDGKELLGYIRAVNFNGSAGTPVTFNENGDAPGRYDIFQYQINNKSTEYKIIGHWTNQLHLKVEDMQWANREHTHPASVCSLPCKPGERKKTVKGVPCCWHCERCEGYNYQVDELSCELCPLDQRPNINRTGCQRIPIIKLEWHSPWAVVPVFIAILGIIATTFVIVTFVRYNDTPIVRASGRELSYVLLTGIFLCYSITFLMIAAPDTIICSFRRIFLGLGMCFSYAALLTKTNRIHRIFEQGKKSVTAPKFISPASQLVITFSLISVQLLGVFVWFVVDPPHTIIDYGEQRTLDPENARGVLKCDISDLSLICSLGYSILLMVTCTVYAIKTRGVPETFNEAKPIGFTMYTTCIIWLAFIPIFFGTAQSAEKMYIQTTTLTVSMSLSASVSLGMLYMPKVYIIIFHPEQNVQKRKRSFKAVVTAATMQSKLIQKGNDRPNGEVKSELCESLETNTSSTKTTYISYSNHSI
Regarding `CCc1nnc(N/N=C/c2ccccc2Cl)n1N`, the z-score was -0.109.
As for `O=C(OCC#CCSc1nc2ccccc2o1)c1ccco1`, the figure is -0.863; as for `COc1cc(-n2ccnc2SC)c(Cl)cc1Cl`, -0.645; as for `Cc1ccc(-c2nnn(CC(=O)N(CC(=O)NC(C)C)c3cnc4ccccc4c3)n2)o1`, -0.185.
Under `O=C1CCC(C(=O)Nc2cccc3ccccc23)N1` (stereo unspecified) stands 0.0808; under `CC(=O)OC12CC3CC(C1)C(=NO)C(C3)C2`, -0.268; under `CNC(=O)c1cc2c(ccc3ccccc32)oc1=N`, -0.246.
As for `Cc1ccccc1/C(N)=N/OC(=O)N1c2ccccc2Sc2ccccc21`, the figure is -0.481; as for `O=C(NNC(=O)c1cc([N+](=O)[O-])ccc1Cl)c1cccs1`, -0.106; as for `CSc1nc(Oc2cccc(C(F)(F)F)c2)cc(C(F)(F)F)n1`, -0.19.
For the compound `Cc1ccc(S(=O)(=O)Oc2ccccc2/C=N/NC(N)=S)cc1`, the z-score is -0.566.
As for `CC(NC(=O)CSc1cccc(C(F)(F)F)c1)c1ccccc1` (stereo unspecified), the figure is -0.0289.
Under `O=C(Nc1cccn(Cc2c(Cl)cccc2Cl)c1=O)c1c(Cl)cccc1Cl` stands -0.126; under `COc1cc(C(c2nnnn2C2CCCC2)N2CCN(C)CC2)cc(OC)c1OC` (stereo unspecified), -0.22; under `CCOc1ccccc1NC(=O)/C=C/C(N)=O`, -0.0696.
As for `CC(=O)C1=C(C)OC(N)=C(C#N)C1c1ccncc1` (stereo unspecified), the figure is -0.0229.
Take `Cc1nn(C)cc1CNC(=O)c1ccc(F)cc1`: the z-score is -0.242.
Take `O=C(COc1ccc(Cl)cc1Cl)OCn1nnc2ccccc2c1=O`: the z-score is -0.36.
For `Cc1cccc(NC(=O)c2cccc3c2C(=O)c2ccccc2-3)c1`, the z-score was determined as 0.223.
As for `Cc1ccc(SCCNC(=O)/C=C/c2ccccc2Cl)cc1`, the figure is -0.258; as for `O=C(CCc1ccccc1)Nc1c(F)c(F)c(F)c(F)c1F`, -0.259; as for `CCC(NC(=O)NCc1cccnc1)(C(F)(F)F)C(F)(F)F`, 0.00489.
As for `CCn1c(COc2cccc(C)c2)nnc1SCC(=O)Nc1cccc(C(=O)O)c1`, the figure is -0.489.
As for `COc1cc(OC)c(C2=NOC(C(=O)N3CCCc4ccccc43)C2)cc1Cl` (stereo unspecified), the figure is -0.168; as for `COC(=O)CSc1cc(C(F)(F)F)nc(-c2ccccn2)n1`, -0.0792; as for `CN(Cc1ccccc1)C(=O)c1cnc2n(c1=O)CCS2`, 0.863.
Turning to `C(=C\c1nc(-c2ccccc2)no1)/c1ccccc1`, the z-score came to 0.096.
In turn, `CC(C)CCN1C(=O)c2ccc(C(=O)NCC3CCCO3)cc2C1=O` (stereo unspecified) returned a z-score of 0.744.
Under `COc1ccc(S(=O)(=O)Nc2ccc3c(c2)OCO3)cc1` stands -0.0161.
Under `CCOC(=O)Nc1sc(=S)n(C)c1C` stands -0.207; under `CC1(c2ccccc2)NC(=O)N(CC(=O)N2CCOCC2)C1=O` (stereo unspecified), 0.596.
For the compound `Cc1ccsc1/C=C1\CCc2ccccc2C1=O`, the z-score is -1.25.
As to `Cc1cccc(NC(=O)CCC(=O)N/N=C/c2cc([N+](=O)[O-])ccc2O)c1`, the z-score was -0.448.
Take `FC(F)(F)c1ccccc1Nc1nccs1`: the z-score is -0.57.
As for `O=C1C2CCCN2C(c2ccc(Cl)cc2)N1c1nccs1` (stereo unspecified), the figure is -0.127.
Under `CCn1c2ccccc2c2cc(NS(=O)(=O)c3ccccc3C)ccc21` stands -0.0727; under `COc1cc(/C=N/NC(=O)CCc2c(C)n[nH]c2C)ccc1O`, -0.233; under `CCc1ccc(NC(=O)CSc2nnc(SCC(=O)Nc3ccc(CC)cc3)n2N)cc1`, -0.053.
Under `CC(C)NS(=O)(=O)c1ccc(NC(=O)C2CCCCC2)cc1` stands 0.919.
Compound `CCN(CC)S(=O)(=O)c1cccc(NC(=O)COC(=O)/C=C/c2ccco2)c1` came in with a z-score of 0.436.
As for `CC(NC(=O)c1ccco1)C(c1cccs1)N1CCOCC1` (stereo unspecified), the figure is 0.165.
Regarding `O=C1C2C3C=CC(C3)C2C(=O)N1c1nc2ccccc2s1` (stereo unspecified), the z-score was -0.239.
For `CC(=O)Nc1sc(C)c(C)c1C(=O)OC1CCOC1=O` (stereo unspecified), the z-score was 1.73.
As for `O=C(Nc1nc2ccccc2[nH]1)c1cccc(S(=O)(=O)N2CCOCC2)c1`, the figure is 0.109; as for `CCOc1ccc(C2N(c3ccc(F)cc3)C(=O)C3CCCN32)cc1` (stereo unspecified), -0.11; as for `NC(=O)C1CCCN(C(=S)Nc2cccc3ccccc23)C1` (stereo unspecified), -0.116.
As for `O=c1c(Cl)c(NCc2ccc(F)cc2Cl)cnn1C12CC3CC(CC(C3)C1)C2`, the figure is -0.193; as for `CCCN1C(=O)/C(=C/c2ccc(C)s2)NC1=S`, active: 13.9.
As for `Cc1onc(-c2c(F)cccc2Cl)c1C(=O)N1C=CC(C(F)(F)Cl)=NCC1`, the figure is -0.129; as for `CCC(=O)Nc1ccccc1Oc1ccccc1`, 0.538; as for `Cc1ccccc1NC(=S)NNC(=O)c1ccoc1C`, -0.0215.
In the case of `O=C(CC1SCCNC1=O)Nc1cc(Cl)cc(Cl)c1` (stereo unspecified), the z-score is -0.399.
As for `CCN(CC)CCNC(=O)c1ccc2c(=O)n(CCc3ccccc3)c(=O)[nH]c2c1`, the figure is 0.276.
Under `CC/C(=N\NC(=O)c1ccc(-c2ccccc2)cc1)C12CC3CC(CC(C3)C1)C2` stands 0.0832; under `O=C(COC(=O)CCSc1ccccc1)Nc1ccc(F)cc1Cl`, -0.378; under `CCC1(C)Cc2c(sc3nn[nH]c(=O)c23)CO1` (stereo unspecified), -0.625.
Compound `CCOc1ccc(C2/C(=C(/O)c3ccc(F)cc3)C(=O)C(=O)N2CCCN(C)C)cc1` (stereo unspecified) showed a z-score of 0.714.
As for `CC(=O)N1CCn2c3ccc(C)cc3c3cccc1c32`, the figure is -0.12.
Turning to `O=[N+]([O-])c1ccc(N=Nc2ccc(O)cc2O)cc1`, the z-score is -0.521.
The compound `CCC(C)NC(=O)COc1ccc(Br)c(C)c1` (stereo unspecified) returned a z-score of 0.482.
Under `COc1ccccc1N/C(N)=N/c1nc(CSc2ccc(C)cc2)cc(=O)[nH]1` stands -0.0894.
Under `Cc1cc2cc(C)c3nnc(SCC(=O)NCc4ccco4)n3c2cc1C` stands -0.212.
Under `CCCCCCCC(=O)N/N=C/c1ccc(Br)cc1` stands -0.319; under `COCc1nn2c(N)c(C#N)cnc2c1-c1ccccc1`, 0.664; under `O=C(COC(=O)c1cnccn1)c1ccccc1`, -0.276.
`N#Cc1ccc(OCc2nnc(SCC(=O)N3CCCc4ccccc43)n2-c2ccccc2)cc1`: the z-score is -0.172.
Under `COc1ccccc1NC(=O)CCCC(=O)OCC(F)(F)C(F)F` stands 0.169; under `O=C(NCCN1CCOCC1)c1ccccc1-c1ccccc1`, 0.163; under `c1ccc2c(CNn3cnnc3)cccc2c1`, -0.167.
As for `O=C(O)c1ccc(N/N=C/c2ccc3ncccc3c2)cc1`, the figure is 0.799; as for `O=S(=O)(Nc1cnc2ccccc2c1)N1CCCCCC1`, -0.166.
For `O=C(Nc1cccnc1)c1cc(-c2ccccc2)on1`, the z-score is -0.466.
Take `CSc1nnc(NC(=O)c2cc3ccccc3oc2=O)s1`: the z-score was found to be 0.609.
Regarding `COc1cc(N)c(Cl)cc1NC(=O)c1ccccc1`, the z-score was found to be 0.363.
For `Nc1ccccc1OCCOCCOc1ccccc1N`, the z-score was -0.0436.
As for `Cc1ccccc1NC(=O)c1ccc(S(=O)(=O)N(C)C)cc1`, the z-score is 0.114.
Consider `COn1c(-c2ccccc2)nc2c1CCc1c-2no[n+]1[O-]`, for which the z-score is -0.14.
As for `CCOc1ccccc1OCCCC(=O)OCC(=O)Nc1cccc(Cl)c1`, the figure is 0.132.
As for `c1ccc2c(c1)nc(N1CCOCC1)c1nncn12`, the figure is -0.183; as for `NC(=O)c1ccc(C(F)(F)F)n(Cc2c(Cl)cccc2Cl)c1=O`, -0.486; as for `CC(C)C(c1nnnn1Cc1ccc2c(c1)OCO2)N1CCN(C)CC1` (stereo unspecified), -0.14.
For `COc1cccc(Cn2c(NCc3cccnc3)nc3c2c(=O)n(C)c(=O)n3C)c1`, the z-score was -0.037.
Under `CCOC(=O)N1CCN(c2c(NCCCN3CCCCCC3)c(=O)c2=O)CC1` stands -0.116; under `CCOC(=O)C(Sc1ncnc2c1sc1nc(N3CCOCC3)c3c(c12)CCCC3)c1ccccc1` (stereo unspecified), -0.224.
Under `OCc1nc2ccccc2n1CCCOc1ccc(Br)cc1` stands -0.539; under `O=S(=O)(c1ccccc1)N(Cc1nc(-c2ccccc2)no1)C1CCCCC1`, -0.141; under `Cc1cc(Cl)cc2c1NC(=O)[C@]21[C@@H]2C(=O)N(Cc3ccccc3)C(=O)[C@@H]2[C@@H]2CCCN21`, 0.492.
As for `COC(=O)c1cc(NC(=O)CSc2nncn2C)cc(C(=O)OC)c1`, the figure is -0.253; as for `Cc1cc(C)c(S(=O)(=O)N2CCN(c3ccc([N+](=O)[O-])c(-n4nc(C)cc4C)c3)CC2)c(C)c1`, -0.485; as for `O=C1Nc2ccc(Br)cc2C1(O)Cc1ccccn1` (stereo unspecified), 0.145.
On to `CCCC(=O)Nc1nc2nc(C)cc(=O)n2[nH]1`, for which the z-score was -0.33.
As for `O=C(COC(=O)/C=C/c1ccc2c(c1)OCO2)NC1CC1`, the z-score is -0.171.
`Cc1ccc(S(=O)(=O)N2CCCC2CO)cc1` (stereo unspecified) gave a z-score of 0.351.
As for `CC12CCC(C(=O)Nc3ccc(SC(F)F)cc3)(CC1=O)C2(C)C` (stereo unspecified), the figure is 0.519; as for `CCC1CCCCN1C(=O)CSc1nnc(-c2ccco2)o1` (stereo unspecified), active: 11.1.
Turning to `CCCCn1c(Cc2ccccc2)nnc1SCC(=O)Nc1cc(C)on1`, the z-score is -0.175.
For the compound `Nc1nc(=S)[nH]c2c1C1(CCCCC1)Cc1ccccc1-2`, the z-score came out at 0.537.
Under `CNC(=S)N1CCc2ccccc2C1` stands -0.276; under `COCC(=O)NC1CCN(C(=O)Nc2ccc(Br)cc2)CC1`, -0.036; under `Nc1cc(C(=O)O)ccc1Nc1ccc(F)c(F)c1`, 0.0314.
As for `CC(=O)N1CCN(c2nc(C)nc3sc4c(c23)CCC(C)C4)CC1` (stereo unspecified), the figure is -0.559.
Compound `COCCCn1c(SCC(=O)N2CC(=O)Nc3ccccc32)nnc1-c1ccoc1C` came in with a z-score of 1.19.
Under `O=c1[nH]c(/C(Cl)=C/c2c(F)cccc2Cl)nc2cc(Cl)ccc12` stands 0.654.
As for `CCN(CC(=O)Nc1ccc([N+](=O)[O-])cc1OC)CC(=O)NC(C)(C)C`, the figure is -0.246; as for `CCN(CC)Cc1csc(C(N)=O)c1`, -0.124; as for `CCOc1ccc(NC(=O)C2CCCCN2S(=O)(=O)c2ccccc2)cc1` (stereo unspecified), -0.224.
As to `COc1ccc(O)c(C=Nc2cc(NC(C)=O)c(Cl)cc2Cl)c1`, the z-score was -1.61.
Under `Cc1ccc(S(=O)(=O)NC2=NCN(CCN3CCOCC3)CN2)cc1` stands 1.32; under `CCOC(=O)C1C(=O)Oc2ccc3ccccc3c2C1C1CCOC1=O` (stereo unspecified), -0.0876; under `CCOC(=O)c1nn(-c2c(C)n(C)n(-c3ccccc3)c2=O)cc1O`, -0.788.
Under `O=C1Nc2ccccc2C(O)(C(=O)NCc2ccc3c(c2)OCO3)N1c1ccc(Cl)c(Cl)c1` (stereo unspecified) stands -0.191.
Under `C/C(=N/NC(=O)c1ccc(C)s1)c1cccc(NC(=O)COc2ccc(Cl)cc2C)c1` stands 0.0218; under `Cc1ccc(Oc2ncccc2/C=N/O)cc1`, 0.106; under `Cc1snc(S(=O)(=O)Cc2c(Cl)cccc2Cl)c1C#N`, 0.0299.
Compound `CC1CCN(CCCCOc2ccc([N+](=O)[O-])cc2)CC1` showed a z-score of 0.0148.
Regarding `CCN(CC)C(=O)c1sc(NC(=O)c2ccc(OC)c([N+](=O)[O-])c2)c(C#N)c1C`, the z-score is -0.297.
